In all, about 45,000 compounds went through this assay and about 65 (0.1%) were called active. Calls follow the shape of the dose curve; as a rule, active = well fitted activation curve with a large enough effect; inconclusive = small, poorly fitted or top-dose-only effect; inactive = no such curve, though single readings can be large or run the other way. The list shows a part of the results.
biological target: Galactocerebrosidase (Homo sapiens) (UniProt P54803); test: A Novel Cell-Based Assay to Identify Small Molecules for B -Galactocerebrosidase; details: 145M-Twi-hGALC-G270D cells, HMU-beta-Gal fluorescence, 48 h; series mostly up to 57.5 µM; activation: at the top concentration; also: 0% is about no effect; nearly all actives have a fitted effect of over 65% in size
UniProt P54803, sequence (P54803 whole entry, looked up): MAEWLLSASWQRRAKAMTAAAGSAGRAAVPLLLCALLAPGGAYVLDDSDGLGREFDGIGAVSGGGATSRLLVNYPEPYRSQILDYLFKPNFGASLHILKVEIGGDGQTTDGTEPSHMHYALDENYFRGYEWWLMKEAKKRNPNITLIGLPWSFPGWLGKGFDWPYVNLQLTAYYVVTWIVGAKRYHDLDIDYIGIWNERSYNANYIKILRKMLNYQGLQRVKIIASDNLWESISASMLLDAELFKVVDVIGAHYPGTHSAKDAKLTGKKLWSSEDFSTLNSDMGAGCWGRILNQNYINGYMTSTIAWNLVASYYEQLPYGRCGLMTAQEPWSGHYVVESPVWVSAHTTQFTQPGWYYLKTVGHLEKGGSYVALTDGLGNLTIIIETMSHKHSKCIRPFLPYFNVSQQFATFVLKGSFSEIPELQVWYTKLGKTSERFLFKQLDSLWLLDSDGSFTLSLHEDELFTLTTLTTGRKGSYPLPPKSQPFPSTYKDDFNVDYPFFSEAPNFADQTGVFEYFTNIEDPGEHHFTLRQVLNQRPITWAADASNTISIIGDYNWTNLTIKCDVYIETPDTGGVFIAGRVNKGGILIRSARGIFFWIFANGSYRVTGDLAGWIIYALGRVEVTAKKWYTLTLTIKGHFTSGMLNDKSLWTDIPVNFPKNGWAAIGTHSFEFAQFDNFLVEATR
Procedure, shortened: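 qHTS, 1536-well; 145M-Twi-hGALC-G270D cells (WT line also made) in DMEM/F12 + 10% FBS; compound incubation on live cells; HMU-β-gal 0.1 mM final, pH 5.2, NaTC; carbonate stop; fluorescence increase = enhanced residual activity.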

activation, inactive:
Cc1sc2ncn(CC(=O)N3CCN(c4ccccc4)CC3)c(=O)c2c1S(=O)(=O)N1CCC(C)CC1 -18.2%, COCCCNC(=O)C1CCN(c2nc3ccc(Cl)cc3[nH]2)CC1 -13.2%, CCCCCCCCOc1ccccc1C(=O)Nc1ccc(C(=O)OCC[N+](C)(CC)CC)cc1 -10.3%, CC1=C(c2ccc(C(C)C)cc2)S(=O)(=O)NC1=NCc1ccc(Cl)cc1 -22.9%, Cc1cccc(NC(=O)N2CC=C(c3c[nH]c4ccccc34)CC2)c1C -30.3%, CCN(CC)C(=O)C1CCCN(c2ncnc3c2c(-c2ccccc2)cn3-c2cccc(C)c2)C1 (stereo not given) -1.81%, O=C(c1cc2cc3ccc(Cl)cc3nc2o1)N1CCN(c2cccc(Cl)c2)CC1 -4.66%, O=c1c2nncn2ccn1-c1ccc(F)c(F)c1 -5.88%, O=C(CN1C(=O)CSc2ccc(S(=O)(=O)N3CCCC3)cc21)NCc1ccc(F)cc1Cl -16%, COc1ccc(CNC(=O)c2ccc(CS(=O)(=O)c3ccc(Br)cc3)o2)cc1 -9.3%, CCCCOC(=O)c1ccc(Nc2nc3ccc(C(=O)c4ccccc4)cc3n3cnnc23)cc1 -20.7%, CCOc1ccc(OCC)c(NC(=O)c2cc(-c3cccs3)nc3ccccc23)c1 16.8%, COc1ccc(-c2cn3nc(SCC(=O)Nc4cc(C)cc(C)c4)ccc3n2)cc1 -3.98%, CCc1cccc(C)c1NC(=O)Cn1ncc2c3ccccc3n(Cc3ccccc3)c2c1=O -13.2%, CCOc1ccc2c(c1)c(=O)c(S(=O)(=O)c1ccc(CC)cc1)cn2Cc1cccc(Cl)c1 -22.2%, CN1CCN2c3ccccc3Cc3ccccc3C2C1 (stereo not given) -11.2%, CCCSc1ncnc2c1c(-c1ccccc1)cn2-c1ccccc1OC -26.2%, COc1ccc(OC)c(NC(=O)CS(=O)(=O)Cc2nc(-c3ccc(C)cc3)oc2C)c1 -24.5%, Cc1ccc(Cl)cc1Nc1nn2c(=O)c3ccc(C(=O)NC4CCCCC4)cc3nc2s1 -15.3%, O=C1CCSc2ccc(S(=O)(=O)Nc3cccc(C(F)(F)F)c3)cc2N1 -34.2%, O=c1c(N2CCN(c3cccc(Cl)c3)CC2)csc2ccc(Cl)cc12 -0.48%, O=c1c2sccc2n(Cc2cc(=O)n3cc(Cl)ccc3n2)c(=O)n1-c1ccccc1 -20.8%, CCOC(=O)c1[nH]c(C)c(CCC(=O)Nc2cc(Cl)c(OC)cc2OC)c1C -33.8%, O=C(NCc1ccccc1Cl)c1ccc2c(c1)N(Cc1ccccc1)CCS2 -21.5%, O=C(NC1CCCCCC1)c1ccc(CS(=O)c2cccc(Cl)c2)o1 (stereo not given) 6.38%, O=C(CSc1nc2ccccc2n1Cc1cccc(F)c1)N1CCN(c2ccc(F)cc2)CC1 -8.07%, Cc1cc(C)c(NC(=O)Cn2c(=O)n(CC(=O)NCCc3ccccc3)c(=O)c3ccccc32)c(C)c1 5.27%, CCC(C)NC(=O)c1cn(CC)c2ccc(S(=O)(=O)N3CCc4ccccc4C3)cc2c1=O (stereo not given) 0.603%, Cc1ccc(CCNC(=O)c2ccc3c(c2)N(Cc2ccc(F)cc2)CCS3)cc1 -9.45%, CCCCc1ncc(/C=C(\Cc2cccs2)C(=O)O)n1Cc1ccc(C(=O)O)cc1 -6.71%, Cc1nc(-c2ccc(C)c(S(=O)(=O)N3CCC(C(=O)NCc4ccc(F)cc4)CC3)c2)no1 -2.73%, COc1ccccc1N1CCN(S(=O)(=O)CCNC(=O)C(c2ccccc2)c2ccccc2)CC1 -16.7%, COc1ccc(S(=O)(=O)N(CCc2ccccc2)CC(=O)Nc2cc(C)cc(C)c2)cc1OC -18%, O=C1NC2CCCCN2C12CCN(CCCN1c3ccccc3CCc3ccc(Cl)cc31)CC2 (stereo not given) -8.03%, CC(=O)c1cccc(N2C(=O)CN(S(C)(=O)=O)CC2(C)C(=O)NC2CCCC2)c1 (stereo not given) -9.8%, CCc1ccc(NC(=O)Cn2c(=O)n(CCc3ccccc3)c(=O)c3sc4ccccc4c32)cc1 3.86%, Cc1cc(N2CCC(C)CC2)nc2ccc(NC(=O)CCC(=O)N3CCN(c4ccccc4F)CC3)cc12 -7.13%, O=S(=O)(c1ccc2nc(Nc3ccc(F)cc3)ccc2c1)N1CCCC1 -11.2%, Cc1cccc(-n2nnc(-c3nc(-c4cccs4)no3)c2N)c1 -23.4%, Cc1ccc(C)c(CNC(=O)CN2C(=O)CSc3ccc(S(=O)(=O)N(C)C)cc32)c1 -29%, CCOc1ccccc1NC(=O)CCc1c(C)nc2cc(-c3ccccc3)nn2c1C -16.5%, Cc1ccc(NC(=O)CN(c2ccc(C)cc2)S(=O)(=O)c2cccc3nonc23)cc1 -30.6%, CC(C)C(=O)Nc1cccc(C(=O)Nc2nnc(C(F)(F)F)s2)c1 -11.8%, Cc1ccc(NC(=O)Cn2nc(-c3ccccc3)nc(Cc3ccccc3)c2=O)cc1 -2.94%, COc1ccc(-n2nc(-c3ccc(C)cc3)c3cnc4cc(F)c(F)cc4c32)cc1 -10.6%, COc1cccc(CNC(=O)c2ccc3c(c2)nc2n3CCC(C)C2)c1 (stereo not given) -20.3%, CCCN(CCC)C(=O)c1nn(C)c2c1CSc1ccccc1-2 -10.1%, COc1cccc(NC(=O)Cn2c(=O)n(CCc3cccc(C)c3)c(=O)c3ccccc32)c1 -9.53%, CCOCCCn1c(=N)c(C(=O)NCc2ccccc2)cc2c(=O)n3ccccc3nc21 -5.74%, Cc1c2cnn(-c3ccccc3)c(=O)c2c(C)n1C(C)C(=O)NCc1cccc(Br)c1 (stereo not given) -6.17%, Cc1cccc(NC(=O)c2c(NC(=O)c3ccco3)sc3c2CCC(C)C3)c1 (stereo not given) -13.7%, CCOc1ccc2nc(N3CCCC(C(=O)NCCc4ccc(C)cc4)C3)sc2c1 (stereo not given) -13.8%, CC(C(=O)Nc1ccccc1)n1nnc2sc3c(c2c1=O)CCCC3 (stereo not given) -12.6%, Cc1ccc(NC(=O)CSc2nc3ccccc3n2CC(=O)N(C)C2CCCCC2)cc1C -7.52%, Cc1ccccc1C(=O)Nc1ccccc1-c1nc(-c2ccccc2)no1 9.98%, Cc1nc(-c2cccc(F)c2)sc1CCNC(=O)C(=O)Nc1ccc2c(c1)OCCO2 -6.78%, CCc1nc2nc(C)c(NS(=O)(=O)c3ccc(F)c(C)c3)c(=O)n2[nH]1 -0.259%, Cc1cc(C(=O)NCc2ccccc2)c2c(C)nn(-c3cccc(Cl)c3C)c2n1 -7.4%, Cc1ccc(NC(=O)C2CCCN2S(=O)(=O)c2ccc3nc(-c4ccccc4)[nH]c3c2)cc1C (stereo not given) -39%, Cc1cccc(NC(=O)Nc2nnc(N3CCCC3)s2)c1 -13.7%, CCCCn1c(CNC(=O)C23CC4CC(CC(C4)C2)C3)nnc1SCC(=O)Nc1ccc(F)cc1 -25.8%, Cc1cccc(Cn2c(=O)n(Cc3ccccc3)c(=O)c3sc4ccccc4c32)c1 0.331%, Cc1ccc(-n2cnc3cc(C(=O)NCCC4=CCCCC4)ccc32)cc1Cl -12.9%, CCc1ccccc1N(CC)C(=O)Cn1nc(Cc2ccncc2)c2ccccc2c1=O -21.8%, Cc1ccc(S(=O)(=O)C(CNS(=O)(=O)c2ccc(F)c(C)c2)c2cccs2)cc1 (stereo not given) -14.7%, O=C(NCCS(=O)(=O)N1CCN(c2ccccc2F)CC1)C1CC(=O)N(c2ccc(F)cc2)C1 (stereo not given) -11.8%, COc1ccc(CNC(=O)C(=O)NCC(c2cccs2)S(=O)(=O)c2cccs2)cc1 (stereo not given) -12.2%, O=C(CCc1nc(-c2cccs2)no1)Nc1ccc([N+](=O)[O-])cc1 -6.64%, Cc1ccc(OCC(=O)Nc2cccc3ccc(C)nc23)c(C)c1 -12.5%, Cc1cccc(NC(=O)COc2ccc3oc4c(c3c2)CCCC4)c1 -21%, Cc1cn2c(=O)c(S(=O)(=O)NCc3ccc(F)cc3)c(C)nc2s1 -10.4%, Cc1ccc(CNC(=O)CSCc2nc(-c3cccc(C)c3)oc2C)cc1 -12.8%, CCC(NC(=O)Nc1cccc(C)c1)c1c(-n2cccc2)sc2c1CCN(C)C2 (stereo not given) -15%, O=C(CCC1N=C2c3ccccc3N=C(SCC(=O)NCCc3ccccc3)N2C1=O)NCc1ccc(F)cc1 (stereo not given) -20.2%, O=C(NCc1ccccc1Cl)c1ccc(-n2cnc3cccnc32)cc1 -17.2%, CCOc1ccccc1NC(=O)Cn1nc(N2CCN(c3ccccc3)CC2)ccc1=O -25.7%, Cn1c(/C(C#N)=C/c2ccc(C(F)(F)F)cc2)nc2ccccc21 -15.8%, COc1ccccc1CNC(=O)CSc1cc(C)[nH]c(=O)n1 -10.1%, Cc1ccn2c(Nc3ccc4c(c3)OCCO4)c(-c3ccc(N(C)C)cc3)nc2c1 -12.4%, COc1ccc(-c2c(C)nn3c(N4CCN(c5cc(Cl)ccc5C)CC4)cc(C)nc23)cc1OC -0.21%, CCOc1ccc(OCC)c(NC(=O)C2CCCN(S(=O)(=O)c3ccc(C)cc3)C2)c1 (stereo not given) -15.1%, CCCN(CCC)C(=O)Cn1c(=O)n(-c2ccc(Cl)c(Cl)c2)c(=O)c2c(C)c(C(=O)N(C)C)sc21 -9.25%, O=C(Cn1c(=O)n(-c2ccccc2Cl)c(=O)c2sc3ccccc3c21)NC1CCCC1 -7.67%, CCOc1ccc(-c2nnc(SCC(=O)N(CC)c3cccc(C)c3)o2)cc1 -21.3%, COc1ccc(CCNC(=O)Cn2c(-c3ccc(F)cc3)cc(C(C)=O)c2C)cc1OC -3.69%, CCOC(=O)Cn1c(CN2CCN(c3ccc(OC)cc3)CC2)nc2c1c(=O)[nH]c(=O)n2C 2.16%, Cc1cc(=O)n(Cc2c(F)cccc2Cl)c2c1c(C)nn2C -2.01%, CCOC(=O)C1CCN(C(=O)CSc2n[nH]c(-c3ccc(OC)cc3)n2)CC1 -8.32%, COc1ccccc1N1CCN(C(=O)c2cc3c(-c4ccccc4F)nn(C)c3s2)CC1 -7.43%, Cc1ccc(-n2c(=O)c3c(cnn3C)n(CC(=O)Nc3cccc(C)c3)c2=O)cc1 -7.23%, Cn1c(=O)n(C)c2cc(N3CCOCC3)c(NS(=O)(=O)c3ccc(Cl)cc3)cc21 -11%, CCCC(=O)Nc1cc(-c2nnc3c4ccccc4c(C)nn23)ccc1C -4.22%, COc1cc2ccccc2cc1C(=O)N1CCN(c2nc3c(F)cc(F)cc3s2)CC1 -14.5%, Cc1ccc(C)c(OC(=O)CSc2nnc(-c3cccs3)o2)c1 -13.6%, COc1ccc2c(c1)CC(C(=O)NCCc1ccc(S(N)(=O)=O)cc1)CO2 (stereo not given) -5.89%

Reference: PubChem BioAssay AID1159614 (National Center for Advancing Translational Sciences (NCATS), 2016)
